# Measured values as given in PubChem BioAssay AID504332 (National Center for Advancing Translational Sciences (NCATS), 2011).
# Several values for one entry are separate records, joined by “and”; a condition that tells them apart may be missing. Equal entries are not always repeated. The campaign covered roughly 350,000 compounds. About 31,000 (8.9%) were called active. Inconclusive results, whose numbers are uncertain, are shown with a selection of clear calls. The call rests on the fitted dose curve; in most records, active means well fitted inhibition curve with a large enough effect; inconclusive means small, poorly fitted or top-dose-only effect; inactive means no such curve, though single readings can be large or run the other way. Potencies beside an inconclusive call are fits to weak or partial responses and may not hold up.
# Biological target: Histone-lysine N-methyltransferase EHMT2 (Homo sapiens) (UniProt Q96KQ7)
# Chain of UniProt Q96KQ7 (Q96KQ7 whole entry, looked up): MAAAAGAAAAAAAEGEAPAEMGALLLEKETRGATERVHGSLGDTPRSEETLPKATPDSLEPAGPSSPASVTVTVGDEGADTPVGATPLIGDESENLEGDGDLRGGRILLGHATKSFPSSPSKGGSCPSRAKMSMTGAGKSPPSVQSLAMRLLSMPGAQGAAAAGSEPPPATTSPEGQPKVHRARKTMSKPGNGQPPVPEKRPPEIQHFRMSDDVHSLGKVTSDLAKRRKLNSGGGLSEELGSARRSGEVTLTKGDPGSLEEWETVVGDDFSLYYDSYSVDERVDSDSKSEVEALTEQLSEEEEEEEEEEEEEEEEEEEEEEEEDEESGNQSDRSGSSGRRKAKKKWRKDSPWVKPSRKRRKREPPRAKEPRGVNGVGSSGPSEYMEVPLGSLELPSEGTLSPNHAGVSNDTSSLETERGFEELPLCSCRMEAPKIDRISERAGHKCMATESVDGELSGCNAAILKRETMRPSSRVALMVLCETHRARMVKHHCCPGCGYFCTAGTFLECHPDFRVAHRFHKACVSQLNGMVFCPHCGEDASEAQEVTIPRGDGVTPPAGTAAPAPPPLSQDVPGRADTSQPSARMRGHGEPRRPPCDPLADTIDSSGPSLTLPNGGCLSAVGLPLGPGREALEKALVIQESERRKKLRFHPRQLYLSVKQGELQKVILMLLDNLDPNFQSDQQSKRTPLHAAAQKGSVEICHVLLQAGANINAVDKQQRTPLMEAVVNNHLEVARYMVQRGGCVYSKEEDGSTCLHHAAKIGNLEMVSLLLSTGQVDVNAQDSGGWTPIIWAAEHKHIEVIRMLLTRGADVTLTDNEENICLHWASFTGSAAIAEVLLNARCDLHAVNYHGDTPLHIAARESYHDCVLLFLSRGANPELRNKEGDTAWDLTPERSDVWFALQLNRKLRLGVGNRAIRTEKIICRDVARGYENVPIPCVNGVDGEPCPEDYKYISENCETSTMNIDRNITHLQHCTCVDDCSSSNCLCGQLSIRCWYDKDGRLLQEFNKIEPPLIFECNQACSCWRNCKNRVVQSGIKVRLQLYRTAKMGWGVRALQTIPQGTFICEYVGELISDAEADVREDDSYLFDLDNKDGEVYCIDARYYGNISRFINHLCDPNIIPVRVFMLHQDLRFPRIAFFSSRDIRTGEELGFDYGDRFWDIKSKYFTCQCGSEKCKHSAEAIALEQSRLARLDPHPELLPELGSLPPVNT
# Test: qHTS Assay for Inhibitors of Histone Lysine Methyltransferase G9a; further: nearly all actives have a fitted effect of over 75% in size
# Details: G9a H3K9 monomethylation, AlphaScreen, 2 h; activity, negative = inhibition: at 59 µM (top of the series) unless noted
# Summary of the method: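 AlphaScreen detection with an anti-monomethyl H3K9 antibody quantified product after a 2 h room-temperature reaction containing 500 nM biotinylated H3K9 peptide, 20 µM SAM and 20 nM enzyme, which had been preincubated 15 min with compound.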
# On the % scale 0 is the no-effect control and ±100 the full control effect; potency means the concentration at half of the fitted maximal effect; tags describe the fitted curve by direction and shape.
Compound,Potency,"activity, negative = inhibition"
CCC1CCC(C(=O)NC(CCSC)C(=O)NCCc2ccc(S(N)(=O)=O)cc2)CC1 (stereo not given),"inconclusive: 79.4 µM [inhibitor, single point]",
CNC(=O)NC(=O)C(OC(=O)Cc1cccc(C(F)(F)F)c1)c1ccccc1 (stereo not given),,inactive: -2.92% [at 102 µM]
COc1ccc(S(=O)(=O)Nc2ccccc2)cc1OC,,inactive: -0.403%
COC(=O)C(NC(C)=O)(Nc1sc2c(c1C(N)=O)CCCC2)C(F)(F)F (stereo not given),active: 8.91 µM,
O=C(CCc1nc2sc3c(c2c(=O)[nH]1)CCCC3)NCCc1ccccc1,"inconclusive: 44.7 µM [inhibitor, partial curve, poor fit]",
COc1ccc(NC(=O)C(=O)NCC(=O)Nc2cc(OC)ccc2OC)cc1,"inconclusive: 56.2 µM [inhibitor, single point]",
Cc1cccc(OCC(=O)Nc2ccc3c(c2)nc(CCN2CCCCC2)n3C)c1,,inactive: -7.01% [at 102 µM]
Cc1noc(/C=C/N(C)C)c1S(=O)(=O)N1CCCC(C(=O)Nc2ccc3c(c2)OCO3)C1 (stereo not given),"inconclusive: 79.4 µM [inhibitor, single point]",
Cc1cccc(OCc2nc(-c3ccc(Br)o3)no2)c1,"inconclusive: 50.1 µM [inhibitor, partial curve]",
O=C(CCNS(=O)(=O)c1ccccc1)OCC(=O)c1ccc(F)cc1,,inactive: -37.1% [at 102 µM]
Cc1cccc(OCC(=O)N2CCN(C(=O)c3ccco3)CC2)c1,,inactive: 2.58% [at 102 µM]
COCCN(CCOC)S(=O)(=O)c1ccc(C(=O)Nc2nnc(C3CC3)o2)cc1,,inactive: 9.75% [at 12.7 µM]
COc1ccc(C(=O)NC(=S)Nc2cccc3nc(C)ccc23)cc1OC,,inactive: -24.4%
C[n+]1cccc(/C=N/Nc2nc(Cl)c(C#N)c(Cl)c2Cl)c1,"inconclusive: 50.1 µM [inhibitor, partial curve, poor fit]",
CCOC(=O)C1CCN(C(=O)C2CCN(C3=NS(=O)(=O)C(c4ccc(C)c(C)c4)=C3C)CC2)CC1,,inactive: 1.27%
CC(C)c1ccc(OCC(O)CNC(C)c2ccccc2)cc1 (stereo not given),"inconclusive: 79.4 µM [inhibitor, single point]",
CCCc1cc(C(=O)Nc2sc(C)c(C)c2C(=O)OCC)no1,active: 10 µM,
CCN1CCN(c2cc(=O)n(Cc3ccc(F)cc3)c(=O)[nH]2)CC1,"inconclusive: 44.7 µM [inhibitor, partial curve, poor fit]",
CCC(C)NC(=O)C(=O)Nc1c2c(nn1-c1ccccc1)CS(=O)(=O)C2 (stereo not given),"inconclusive: 17.8 µM [inhibitor, partial curve, poor fit]",
Nc1ccc2ncccc2c1,"inconclusive: 6.31 µM [inhibitor, partial curve, poor fit]",
CCOc1ccc(-n2c(=S)sc3c(=O)n(-c4ccccc4)c(SCC(=O)O)nc32)cc1,,inactive: -13.1% [at 102 µM]
O=C(COc1ccccc1)Nc1cccc(S(=O)(=O)N2CCCC2)c1,"inconclusive: 70.8 µM [inhibitor, single point]",
O=C(c1ccc(S(=O)(=O)c2ccccc2Cl)c([N+](=O)[O-])c1)N1CCN(Cc2ccccc2)CC1,"inconclusive: 28.2 µM [inhibitor, single point]",

Compound,Potency,"activity, negative = inhibition"
CCOC(OCC)c1cn(Cc2ccc3c(c2)C(=O)c2ccccc2C3=O)nn1,"inconclusive: 35.5 µM [inhibitor, partial curve, poor fit]",
Cc1ccc2nc(NC(=O)CSCC(=O)OCC(=O)c3ccccc3)sc2c1,"inconclusive: 35.5 µM [inhibitor, single point]",
Cc1ccc(NCc2nnc(SCC#N)o2)c(C)c1,"inconclusive: 39.8 µM [inhibitor, single point]",
CCOc1ccc(CCNC(=O)C2COc3ccccc3C2)cc1OCC (stereo not given),,inactive: -4.47%
Cc1nnc(N/N=C/c2c(O)n(-c3cccc(C(F)(F)F)c3)c(=O)c3ccccc23)[nH]c1=O,"inconclusive: 44.7 µM [inhibitor, partial curve]",
O=C(CN1C(=O)CCSc2ccccc21)Nc1ccccc1F,,inactive: -2.44%
O=C(COC(=O)Cn1cnc2ccccc21)Nc1ccc2c(c1)C(=O)c1ccccc1C2=O,"inconclusive: 3.16 µM [inhibitor, full curve, poor fit]",
CCCC(=Nc1ccc(N)cc1)C1=C(O)C(C(=O)OC)C(C)(C)CC1=O (stereo not given),"inconclusive: 0.355 µM [inhibitor, full curve, poor fit]",
COc1ccc(CNCCC2(O)CC(C)N(C)CC2C)cc1OC (stereo not given),"inconclusive: 89.1 µM [inhibitor, single point]",
O=C(c1ccc2c(c1)N(Cc1ccc(Cl)cc1)C(=O)c1ccccc1S2(=O)=O)N1CCCCC1,,inactive: -1.97%
COc1cc2cc(C#N)c(SCC(=O)N3CCOCC3)nc2cc1OC,"inconclusive: 39.8 µM [inhibitor, single point]",
Cc1c(Cl)cccc1N1C(=O)C2ON(c3ccccc3)C(c3cccnc3)C2C1=O (stereo not given),"inconclusive: 31.6 µM [inhibitor, single point]",
O=C(Nc1nc2ccc(F)cc2s1)c1nc(S(=O)(=O)Cc2ccccc2)ncc1Cl,"inconclusive: 7.08 µM [inhibitor, partial curve, poor fit]",
O=C(Nc1ccccc1N1CCCC1)C1CCN(S(=O)(=O)c2ccccc2C(F)(F)F)CC1,active: 35.5 µM,
CNc1oc(-c2ccccc2)nc1S(=O)(=O)c1ccc(C)cc1,"inconclusive: 14.1 µM [inhibitor, partial curve, poor fit]",
CCCCN1C(=O)C2NN=C(C(=O)OC)C2C1=O (stereo not given),"inconclusive: 79.4 µM [inhibitor, partial curve, poor fit]",
S=c1nc[nH]c2nc[nH]c12,"inconclusive: 7.08 µM [inhibitor, single point] and inconclusive: 3.98 µM [inhibitor, partial curve, poor fit]",inconclusive: -54% [inhibitor] [at 2.33 µM]
Cn1c(NCc2cc(Br)ccc2O)nc2ccccc21,,inactive: 16.6% [at 102 µM]
COc1cc(OC)c(NC(=O)NCc2ccc3c(c2)CCN3C(=O)c2ccccc2)cc1Cl,,inactive: -24.7%
Cc1cc(C)c(S(=O)(=O)c2ccccc2F)c(=O)[nH]1,"inconclusive: 1 µM [inhibitor, single point]",
CCCSc1ncc(Cl)c(C(=O)Nc2nc3ccc(OCC)cc3s2)n1,,inactive: -0.112%
O=C(N/N=C/c1ccc([N+](=O)[O-])o1)c1ccc2c(c1)OCO2,"inconclusive: 39.8 µM [inhibitor, partial curve, poor fit]",
COC(=O)c1sc2cccc(F)c2c1S(=O)(=O)N1CCN(c2ccc(F)cc2)CC1,"inconclusive: 25.1 µM [inhibitor, partial curve, poor fit]",

Compound,Potency,"activity, negative = inhibition"
Cc1ccc(S(=O)(=O)c2nc(-c3cccc(C)c3)oc2N2CCN(c3ccccc3)CC2)cc1,"inconclusive: 7.94 µM [inhibitor, full curve, poor fit]",
O=C(COc1ccccc1)NN1C(=O)CSC1=S,"inconclusive: 50.1 µM [inhibitor, partial curve]",
Cc1ccc(C2=N/C(=C/c3cccs3)C(=O)N2Nc2ccccc2)cc1,,inconclusive: -65.4% [inhibitor]
CCCN1CCC(=O)N(CCO)CC1,active: 44.7 µM,
COc1ccc(OCC(=O)Nc2ccc(S(=O)(=O)N3CCOCC3)cc2)cc1,,inactive: 2.71% [at 12.7 µM]
O=C(CCSc1nc(-c2ccco2)cc(C(F)(F)F)n1)N1CCN(c2ccccn2)CC1,"inconclusive: 22.4 µM [inhibitor, single point]",
CCN(CC)CCNc1c2c(c(C#N)c3nc4ccccc4n13)CCCC2,,inactive: -4.23%
CCC1=Nc2cc(C(=O)NCCCN3CCOCC3)ccc2Sc2ccc(Br)cc21,"inconclusive: 79.4 µM [inhibitor, single point]",
CCOC(=O)N1CCC(NC(=O)C2CCN(C(=O)N3CCOc4ccccc43)CC2)CC1,,inactive: 0.384% [at 12.7 µM]
COC(=O)C(CCSC)NC(=O)c1cc2c(n(-c3ccc(C)cc3)c1=O)CC(C)(C)CC2=O (stereo not given),"inconclusive: 3.16 µM [inhibitor, partial curve, poor fit]",
COc1ccc(C2=NN(C(=O)CN3CCCCC3)C(c3ccc(C)cc3)C2)cc1 (stereo not given),,inactive: 26% [at 12.7 µM]
COc1ccc(-c2ccc3c(n2)sc2c(=O)[nH]c(=O)[nH]c23)cc1OC,active: 3.55 µM,
CCC(CC)NC(=O)c1cccc(Oc2ccccc2)c1,,inactive: -3.18% [at 102 µM]
CCCC(=O)Nc1nc2ccc(S(N)(=O)=O)cc2s1,"inconclusive: 70.8 µM [inhibitor, partial curve, poor fit]",
CCOC(=O)c1[nH]c(C)c(CCC(=O)NCc2ccccc2Cl)c1C,,inactive: -21.3%
CCC(=O)Nc1ccc(-c2nnc3c4ccccc4c(C)nn23)cc1,,inactive: 6.63%
Cc1ccc(C(=O)NCCNC(=O)c2ccco2)cc1C,"inconclusive: 28.2 µM [inhibitor, single point]",
NC(=O)C1(N2CCCCC2)CCN(CCCC(=O)c2ccc(F)cc2)CC1,,inactive: -48% [at 12.7 µM]
COc1ccc(C2N=C(c3ccccc3)C(C)(C)N2O)cc1 (stereo not given),"inconclusive: 35.5 µM [inhibitor, full curve]",
N#Cc1ccc(CSc2nc3c(c(=O)[nH]2)CCC3)cc1,"inconclusive: 39.8 µM [inhibitor, partial curve, poor fit]",
CC(C)(C)CC(C)(C)NCC(O)COCCOc1ccc(Br)cc1 (stereo not given),,inactive: 1.72%
Cc1ccc(C(=O)Oc2ccccc2N2C(=O)C3C4CCC(C4)C3C2=O)cc1 (stereo not given),,inactive: 19.5%
CSc1nc2c(c(=O)[nH]1)CCCC2,,inactive: -0.878% [at 12.7 µM]
